# Results as given in paper PMC8710044.
# B1: CYP3A4 (Homo sapiens) (protein)
# chain: MALIPDLAMETWLLLAVSLVLLYLYGTHSHGLFKKLGIPGPTPLPFLGNILSYHKGFCMFDMECHKKYGKVWGFYDGQQPVLAITDPDMIKTVLVKECYSVFTNRRPFGPVGFMKSAISIAEDEEWKRLRSLLSPTFTSGKLKEMVPIIAQYGDVLVRNLRREAETGKPVTLKDVFGAYSMDVITSTSFGVNIDSLNNPQDPFVENTKKLLRFDFLDPFFLSITVFPFLIPILEVLNICVFPREVTNFLRKSVKRMKESRLEDTQKHRVDFLQLMIDSQNSKETESHKALSDLELVAQSIIFIFAGYETTSSVLSFIMYELATHPDVQQKLQEEIDAVLPNKAPPTYDTVLQMEYLDMVVNETLRLFPIAMRLERVCKKDVEINGMFIPKGVVVMIPSYALHRDPKYWTEPEKFLPERFSKKNKDNIDPYIYTPFGSGPRNCIGMRFALMNMKLALIRVLQNFSFKPCKETQIPLKLSLGGLLQPEKPVVLKVESRDGTVSGA
# Columns and labels:
# [1] = substrate: Cc1c(Cl)cccc1Nc1ccccc1C(=O)O; assay: cells, lysate or membranes named; conditions: 95% CI in parentheses, pH 7.4
# [2] = substrate: Cc1ccc(Cl)c(Nc2ccccc2C(=O)O)c1Cl; assay: cells, lysate or membranes named; conditions: 95% CI in parentheses, pH 7.4
# [3] = substrate: Cc1ccc(Nc2c(F)cccc2Cl)c(CC(=O)O)c1; assay: cells, lysate or membranes named; conditions: 95% CI in parentheses, pH 7.4
# [4] = substrate: Cc1cccc(Nc2ccccc2C(=O)O)c1C; assay: Steady-state bioactivation kinetics; format: in vitro ADME, human; conditions: other: CYP3A4, path 1, 2, 95% CI in parentheses, pH 7.4
# [5] = substrate: O=C(O)COC(=O)Cc1ccccc1Nc1c(Cl)cccc1Cl; assay: Steady-state bioactivation kinetics; format: in vitro ADME, human; conditions: other: CYP3A4; metabolite M6, path 3; 95% CI in parentheses; pH 7.4
# [6] = substrate: O=C(O)c1ccccc1Nc1cccc(C(F)(F)F)c1; assay: Steady-state bioactivation kinetics; format: in vitro ADME, human; conditions: other: CYP3A4; metabolite M2/M4, path 1, 2; 95% CI in parentheses; pH 7.4
# [7] = substrate: Cc1cccc(Nc2ccccc2C(=O)O)c1C; assay: Steady-state kinetics of overall NSAID metabolism; format: in vitro ADME, human; conditions: other: overall metabolism (depletion) by CYP3A4; 95% CI in parentheses; pH 7.4
# [8] = substrate: O=C(O)COC(=O)Cc1ccccc1Nc1c(Cl)cccc1Cl; assay: Steady-state kinetics of overall NSAID metabolism; format: in vitro ADME, human; conditions: other: overall metabolism (depletion) by CYP3A4; 95% CI in parentheses; pH 7.4
# [9] = substrate: O=C(O)c1ccccc1Nc1cccc(C(F)(F)F)c1; assay: Steady-state kinetics of overall NSAID metabolism; format: in vitro ADME, human; conditions: other: overall metabolism (depletion) by CYP3A4; 95% CI in parentheses; pH 7.4
# [10] = other: CYP3A4, metabolite M2/M4a, path 1, 2
# [11] = other: CYP3A4, metabolite M2/M4b, path 1, 2
# [12] = other: overall metabolism (depletion) by CYP3A4
# [13] = other: CYP3A4, metabolite M6, path 3
# [14] = other: CYP3A4, metabolite M6a, path 3
protein,measurement,setting,value
B1,Km,[1]; [10],11.9 (8.6–16.2) μM
same,kcat,[1]; [10],4.3 (4.1–4.5) pmol/min/nmol protein
same,Km,[1]; [11],28.7 (24.2–34.0) μM
same,kcat,[1]; [11],20.0 (19.2–20.9) pmol/min/nmol protein
same,Km,[1]; [12],170 (140–210) μM
same,kcat,[1]; [12],6340 (5840–6910) pmol/min/nmol protein
same,Km,[2]; [13],76.8 (63.5–92.8) μM
same,kcat,[2]; [13],49.8 (46.8–53.2) pmol/min/nmol protein
same,Km,[2]; [12],260 (210–340) μM
same,kcat,[2]; [12],10700 (9550–12200) pmol/min/nmol protein
same,Km,[3]; [14],35.5 (31.4–40.2) μM
same,kcat,[3]; [14],5.2 (5.1–5.4) pmol/min/nmol protein
same,Km,[3]; [12],140 (110–170) μM
same,kcat,[3]; [12],4440 (4060–4910) pmol/min/nmol protein
same,Km,[4]; metabolite M2/M4a,91.3 (79.5–104.9) μM
same,kcat,[4]; metabolite M2/M4a,6.7 (6.4–7.1) pmol/min/nmol protein
same,Km,[4]; metabolite M2/M4b,37.9 (32.1–44.6) μM
same,kcat,[4]; metabolite M2/M4b,4.1 (3.9–4.2) pmol/min/nmol protein
same,Km,[5],90.5 (75.5–108.5) μM
same,kcat,[5],9.9 (9.3–10.6) pmol/min/nmol protein
same,Km,[6],38.8 (29.7–50.0) μM
same,kcat,[6],40.3 (37.6–43.3) pmol/min/nmol protein
same,Km,[7],89.7 (73–110) μM
same,kcat,[7],3930 (3650–4250) pmol/min/nmol protein
same,Km,[8],260 (210–320) μM
same,kcat,[8],7720 (7000–8610) pmol/min/nmol protein
same,Km,[9],150 (130–170) μM
same,kcat,[9],6120 (5770–6520) pmol/min/nmol protein
